# Assay results from PubChem BioAssay AID1030 (National Center for Advancing Translational Sciences (NCATS), 2008).
# Hit rate of the full screen: of about 220,000 compounds, about 16,000 (7.3%) were called active. Inconclusive means that the source gave no clear call. Such entries were picked first, then a sample of the others. Calls follow the shape of the dose curve; as a rule, active = well fitted inhibition curve with a large enough effect (not every such curve was filed as active); inconclusive = small, poorly fitted or top-dose-only effect, or another doubt; inactive = no such curve, though single readings can be large or run the other way. Potencies of inconclusive entries are left out as doubtful fits.
# Molecular target: Aldehyde dehydrogenase 1A1 (Homo sapiens) (UniProt P00352)
# Assay: qHTS Assay for Inhibitors of Aldehyde Dehydrogenase 1 (ALDH1A1);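 as to activity, negative = inhibition: plate controls were no enzyme wells and a reference inhibitor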
# Conditions: Purified ALDH1A1, NADH fluorescence, propionaldehyde substrate; series mostly up to 75.3 µM; activity, negative = inhibition: at the top concentration
# Potency is read from the fitted curve at half-maximal effect; tags tell the direction and shape of the fitted curve.
# UniProt P00352, sequence (P00352 whole entry, looked up): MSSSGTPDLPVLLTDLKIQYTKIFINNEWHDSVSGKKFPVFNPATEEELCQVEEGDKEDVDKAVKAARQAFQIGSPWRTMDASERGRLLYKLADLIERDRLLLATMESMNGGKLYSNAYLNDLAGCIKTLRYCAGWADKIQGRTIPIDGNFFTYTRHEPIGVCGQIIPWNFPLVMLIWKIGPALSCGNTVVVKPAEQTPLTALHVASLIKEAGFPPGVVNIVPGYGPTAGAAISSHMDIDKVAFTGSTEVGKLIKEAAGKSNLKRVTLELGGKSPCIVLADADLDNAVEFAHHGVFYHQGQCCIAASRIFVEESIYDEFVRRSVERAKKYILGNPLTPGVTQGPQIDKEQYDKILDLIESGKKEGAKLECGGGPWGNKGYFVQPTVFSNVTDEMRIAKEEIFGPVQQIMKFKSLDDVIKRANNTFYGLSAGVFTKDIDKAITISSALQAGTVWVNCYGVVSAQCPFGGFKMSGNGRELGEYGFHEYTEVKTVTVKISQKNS
SMILES,Potency,"activity, negative = inhibition"
O=C(NCCN1CCCCCC1)C1CCC(CNS(=O)(=O)c2cccc3cccnc23)CC1 (centres undefined),active: 12.6 µM,
CCOC(=O)c1cc(=O)n2[nH]c(-c3ccc(C)cc3)cc2n1,"inconclusive [inhibitor, full curve]",
Cc1cc(C)c(S(=O)(=O)n2ccc(-c3ccc(OCCN(C)c4ccccn4)cc3)n2)c(C)c1,,inactive: 5.17%
O=C(NCC1CCCO1)c1ccc2c(=O)n(Cc3cccc(Br)c3)c(=S)[nH]c2c1 (centres undefined),"inconclusive [inhibitor, full curve, poor fit]",
Cc1ccc(-n2c(-c3ccncc3)nnc2-c2ccco2)cc1,"inconclusive [inhibitor, single point]",
CCNC(=S)N(Cc1ccco1)Cc1cc2cc(OCC)ccc2[nH]c1=O,"inconclusive [inhibitor, single point]",
CC1C/C(=N\NC(=S)NC(C)C)CC(C)(C)C1 (centres undefined),,inactive: -11.6%
O=C(OCC(=O)c1ccc(Cl)s1)c1ccccn1,"inconclusive [inhibitor, single point]",
CC1CCC(NC(=O)c2ccc(CNc3c(NC4CCCCC4)c(=O)c3=O)cc2)CC1 (centres undefined),"inconclusive [inhibitor, full curve, poor fit]",
N#CC1=C(N)C(C#N)(C#N)C2(C(=O)Nc3ccccc32)C2CCCC=C12 (centres undefined),"inconclusive [inhibitor, single point]",
N=C(N)c1ccc(O)cc1,,inactive: 4.3%
CCOC(=O)N1CCN(CCC(=O)c2ccc(Cl)cc2)CC1,active: 0.0891 µM,
O=C(COC(=O)CCCc1nc2ccccc2s1)NC(=O)NCc1ccco1,"inconclusive [inhibitor, single point]",
Nc1nc(N2CCN(C(c3ccccc3)c3ccccc3)CC2)n[nH]1,"inconclusive [inhibitor, single point]",
COc1ccc(/C=N/OCC(=O)Nc2ccc3c(c2)OCO3)c(OC)c1,,inactive: -3.23%
COc1ccc(CCN2C(=O)N(c3ccc(OC)cc3)C(=O)C2CC(=O)Nc2ccccc2)cc1 (centres undefined),,inactive: -7.18%
Cc1ccc(NC(=O)c2ccc(CSc3nnc(-c4ccncc4)n3C)cc2)c(C)c1,"inconclusive [inhibitor, full curve, poor fit]",
CC1CCN(C(NC(=O)c2ccco2)C(=O)c2ccccc2)CC1 (centres undefined),"inconclusive [inhibitor, single point]",
Cc1ccc(S(=O)(=O)c2c(COC(=O)c3ccccc3Cl)c(-c3ccccc3)nn2C)cc1,,inactive: -9.34%
O=C(COC(=O)c1ccccc1Nc1ccccc1)NCc1ccccc1Cl,"inconclusive [inhibitor, partial curve]",
COc1ncc2nc(-c3ccccc3)c(=O)n(Cc3cccs3)c2n1,"inconclusive [inhibitor, single point]",
CC(NC(=O)c1noc2c1CCCCC2)c1ccccc1 (centres undefined),"inconclusive [inhibitor, single point]",

SMILES,Potency,"activity, negative = inhibition"
CCOc1ccccc1OCC(=O)Nc1nnc(COC)s1,"inconclusive [inhibitor, single point]",
C=C(Cl)COc1ccc2c(CCC)cc(=O)oc2c1,"inconclusive [inhibitor, partial curve]",
O=C(Nc1cccc(-c2cn3cccnc3n2)c1)c1ccco1,"inconclusive [inhibitor, partial curve]",
COc1cccc(N=Cc2c(O)n(-c3cccc(C)n3)c(=O)c3ccccc23)c1,"inconclusive [inhibitor, partial curve]",
CCOc1ccccc1CNC(=O)c1cc2occc2n1C,"inconclusive [inhibitor, single point]",
CC/C(=N\NC(=O)c1ccc(Br)cc1)c1ccccc1,"inconclusive [inhibitor, single point]",
COc1ccc(C2=C(C=C(C#N)C#N)C(c3ccccc3C)c3ccccc3O2)cc1OC (centres undefined),"inconclusive [inhibitor, single point]",
COc1cc(-c2cc(N3C(=O)Nc4ccccc4N3O)n[nH]2)cc(OC)c1OC,,inactive: -4.92%
CC(=O)N1N=C(c2ccc(Cl)cc2)OC1(C)C,"inconclusive [inhibitor, partial curve]",
COc1c2ccoc2nc2c(OC)c(O[C@@H]3O[C@H](C)[C@@H](O)[C@@H](O)[C@H]3O)ccc12,"inconclusive [inhibitor, partial curve]",
COC(=O)C1=C(C)NC2=C(C(=O)CC(C)(C)C2)C1c1cnn(C)c1C (centres undefined),"inconclusive [inhibitor, single point]",
Cc1ccc(NC(=O)CCCCCC2NC(=O)NC2C)cc1 (centres undefined),"inconclusive [inhibitor, partial curve]",
COc1ccccc1-c1c(C(F)(F)F)oc2cc(OC(=O)c3ccc([N+](=O)[O-])cc3)ccc2c1=O,"inconclusive [inhibitor, single point]",
CCC(=O)N1CCN(c2ccc(NC(=O)c3ccc([N+](=O)[O-])o3)cc2)CC1,,inactive: -7.91%
COCCNC(=S)N(Cc1cccs1)Cc1cc2cccc(C)c2[nH]c1=O,active: 12.6 µM,
S=C(Nc1ccc2cn[nH]c2c1)Nc1ccccc1Cl,active: 14.1 µM,
COc1cccc(OCc2cc(/C=N/NC(=O)c3nc(Cl)c(Cl)c(N)c3Cl)ccc2OC)c1,"inconclusive [inhibitor, partial curve, poor fit]",
CCCCCc1cc(O)c2c(C)cc(=O)oc2c1,active: 1.78 µM,
O=C1NC(=S)S/C1=C\c1ccc(SCc2ccccc2)o1,"inconclusive [inhibitor, single point]",
C=CCNc1sc(C(=O)c2ccccc2)c(N)c1-c1nc2ccccc2s1,,inactive: 1.9%
CCCNC(=O)C1CCN(S(=O)(=O)c2cccc3nonc23)CC1,"inconclusive [inhibitor, single point]",
COc1ccc(N2CCN(C(=O)Cc3ccc(S(=O)(=O)N4CCOCC4)s3)CC2)cc1,,inactive: -7.61%
